Hit rate of the full screen: of about 310,000 compounds, about 2,200 (0.71%) showed an effect of 50% or more. The effect is printed as a negative number. This is one part of the list.

The experiment deals with human ether-à-go-go-related gene (hERG) potassium channel (human, UniProt Q12809). The experiment is described as follows: primary screen, population patch clamp on CHO cells stably expressing hERG.
human ether-à-go-go-related gene (hERG) potassium channel, sequence (Q12809 whole entry, looked up): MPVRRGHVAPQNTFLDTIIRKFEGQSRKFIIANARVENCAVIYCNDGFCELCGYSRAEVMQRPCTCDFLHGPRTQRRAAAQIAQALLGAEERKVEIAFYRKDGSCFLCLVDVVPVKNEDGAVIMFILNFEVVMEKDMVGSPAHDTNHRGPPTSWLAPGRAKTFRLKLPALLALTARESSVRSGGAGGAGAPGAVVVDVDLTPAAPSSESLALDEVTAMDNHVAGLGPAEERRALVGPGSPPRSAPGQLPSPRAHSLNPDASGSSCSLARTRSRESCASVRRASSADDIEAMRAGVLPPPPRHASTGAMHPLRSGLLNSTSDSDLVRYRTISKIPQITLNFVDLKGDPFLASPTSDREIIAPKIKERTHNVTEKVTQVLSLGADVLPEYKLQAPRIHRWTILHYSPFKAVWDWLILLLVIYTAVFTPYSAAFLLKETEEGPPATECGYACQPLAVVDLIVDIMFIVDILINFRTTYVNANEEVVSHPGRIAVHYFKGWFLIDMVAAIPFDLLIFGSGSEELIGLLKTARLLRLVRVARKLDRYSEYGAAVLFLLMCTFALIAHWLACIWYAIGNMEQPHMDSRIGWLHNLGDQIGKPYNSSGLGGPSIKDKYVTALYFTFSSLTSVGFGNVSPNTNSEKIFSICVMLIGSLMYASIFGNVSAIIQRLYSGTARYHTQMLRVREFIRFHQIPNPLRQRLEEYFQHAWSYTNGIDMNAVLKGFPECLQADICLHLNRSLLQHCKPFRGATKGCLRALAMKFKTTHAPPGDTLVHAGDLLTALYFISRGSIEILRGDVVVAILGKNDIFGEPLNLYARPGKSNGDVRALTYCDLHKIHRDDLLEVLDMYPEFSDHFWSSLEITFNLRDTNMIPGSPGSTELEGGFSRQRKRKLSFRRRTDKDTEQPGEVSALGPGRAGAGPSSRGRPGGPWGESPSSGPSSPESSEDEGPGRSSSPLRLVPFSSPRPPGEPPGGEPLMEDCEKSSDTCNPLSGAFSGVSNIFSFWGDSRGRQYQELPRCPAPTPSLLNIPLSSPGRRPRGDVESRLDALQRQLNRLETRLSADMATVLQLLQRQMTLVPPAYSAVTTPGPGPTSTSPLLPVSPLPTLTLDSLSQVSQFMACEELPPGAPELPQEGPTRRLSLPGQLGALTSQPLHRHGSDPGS
On to `Cc1c(CN(C)C(=O)CSc2nc(-c3ccco3)cc(C(F)(F)F)n2)cnn1C`, for which the “hERG current change (%, negative = inhibition) at 1uM” value is given as 12.4%.

`CC/C(=N\N1CCCCCC1)c1c(O)n(-c2ccccc2C)c(=O)[nH]c1=O`: the “hERG current change (%, negative = inhibition) at 1uM” value is 14.1%. The same measure for `COc1cccc(CC(=O)N2CCN(Cc3cccc(Cl)c3)CC2)c1`: 3.24%. The same measure for `Cc1nc2ccc(Cl)cc2c(=O)n1-c1ccccc1Cl`: 14.6%; for `Cc1cccc2cc(/C=N/Nc3ccc(C(=O)O)cc3)c(Cl)nc12`: 5.76%; for `Cn1c(C(=O)NCc2cccs2)cc2c(=O)n(C)c3ccccc3c21`: 4.97%. The same measure for `COC(=O)c1ccccc1NC(=O)c1cc2ncc(Br)cn2n1`: 7.91%; for `CCCCC(=Nc1ccccc1OC)C1=C(O)CC(c2ccccc2)CC1=O` (stereo not drawn): 15.3%; for `COc1ccc(C(=O)NCCNc2ccccc2[N+](=O)[O-])cc1`: 10.9%. Consider `COc1ccccc1Nc1nc(N)nc(CSC(=S)N2CCCCC2)n1`, for which the “hERG current change (%, negative = inhibition) at 1uM” value is reported as 8.95%. Turning to `Cc1ccc(Nc2nc3ccccc3[nH]2)nc1`, the “hERG current change (%, negative = inhibition) at 1uM” value was 6.46%. On to `COc1ccc(NS(=O)(=O)c2ccc3c(c2)NC(=O)CCS3)cc1Cl`, for which the “hERG current change (%, negative = inhibition) at 1uM” value worked out at 8.04%. The same measure for `CCOC(=O)N1CCC(NS(=O)(=O)c2ccc3c(c2)CCN3C(C)=O)CC1`: 0.963%; for `CN(C)C(Cc1ccc(Cl)cc1)C(=O)c1ccccc1` (stereo not drawn): 12.1%.

`CC(C)Cn1c(=O)c2c(nc3n2CC(C)CN3Cc2ccccc2)n(C)c1=O` (stereo not drawn): the “hERG current change (%, negative = inhibition) at 1uM” value is on record as -16.7%. The same measure for `COc1ccc(-c2c(-c3cc(OC)cc(OC)c3)n(C)c3ccc(-c4ccc(S(N)(=O)=O)cc4)cc23)cc1`: 17%; for `Cn1c(O)c(N=NC(=O)c2cc(-c3cccs3)nc3ccccc23)c2ccccc21`: 16.6%.

As to `CCc1ccc(NC(=O)CSc2nnc(Cn3c(=O)sc4ccccc43)n2C)cc1`, the “hERG current change (%, negative = inhibition) at 1uM” value was 2.68%. The same measure for `O=C(NCCN1CCCCC1)c1ccc(Cl)nc1Cl`: 12%; for `CC(C)=CCCC1(C)C=Cc2c(c(C)cc3c2[nH]c2cc(O)ccc23)O1` (stereo not drawn): 15.7%.

Take `O=Cc1cn(-c2ccccc2)nc1-c1ccccn1`: the “hERG current change (%, negative = inhibition) at 1uM” value came to 8.46%. On to `O=C(NC(=S)NNC(=O)c1ccccc1O)c1cccc([N+](=O)[O-])c1`, for which the “hERG current change (%, negative = inhibition) at 1uM” value was 22.3%.

On to `Cc1ccccc1-n1nc2c(c1NC(=O)c1ccc(Br)o1)CSC2`, for which the “hERG current change (%, negative = inhibition) at 1uM” value was found to be 0.781%. Consider `O=C(Nc1cccc(F)c1)C1CCN(c2nnnn2-c2ccccc2)CC1`, for which the “hERG current change (%, negative = inhibition) at 1uM” value is on record as 9.34%. The same measure for `Fc1ccc(Nc2c3c(nc4ccccc24)CCC3)cc1`: -12.7%. Under `CC(C)c1cccc(C(C)C)c1NC(=O)c1ccccc1` stands 17.1%; under `C=C(C)CSc1nnc(-c2cc(OC)c(OC)c(OC)c2)n1N`, 17.1%. Under `CC(Oc1ccccc1C(N)=O)C(=O)Nc1ccc(S(=O)(=O)N2CCCC2)cc1` (stereo not drawn) stands -0.652%.

Take `Cc1cc(C)cc(NC(=O)CCN2C(=O)c3ccccc3C2=O)c1`: the “hERG current change (%, negative = inhibition) at 1uM” value is 14.2%.

As to `Cc1ccc(/C(N)=N/OC(=O)c2ccc(C)cc2Cl)cc1`, the “hERG current change (%, negative = inhibition) at 1uM” value came out at 12.1%.

As to `CC1(C)CC(=O)C=C(C(=O)N2CCCC(C(=O)c3cccc(C(F)(F)F)c3)C2)O1` (stereo not drawn), the “hERG current change (%, negative = inhibition) at 1uM” value is given as 1.78%. The same measure for `CCN1CCC(=NNC(=O)CC23CC4CC(CC(C4)C2)C3)CC1`: 11.5%; for `CCC(C)(C)NC(=O)Cn1c(-c2ccccc2)cc(C(C)=O)c1C`: 13.6%; for `Cc1onc(-c2c(Cl)cccc2Cl)c1C(=O)N1CCOCC1`: 12.7%. Under `O=C(/C=C/c1cccnc1)c1cc(F)ccc1O` stands 8.59%.

Regarding `O=C(COC(=O)CCc1nc2ccccc2c(=O)[nH]1)Nc1ccc(OC(F)(F)F)cc1`, the “hERG current change (%, negative = inhibition) at 1uM” value was determined as 9.24%. Regarding `O=S(=O)(Nc1cccc(S(=O)(=O)N2CCOCC2)c1)c1cccs1`, the “hERG current change (%, negative = inhibition) at 1uM” value was 21.5%. The same measure for `CCc1ccc2nc(N(CCCN(C)C)C(=O)c3ccc(C(=O)c4ccccc4)cc3)sc2c1.Cl`: 5.9%; for `COc1ccccc1CNC(=O)CN1C(=O)N(C)C2(CCCCC2)C1=O`: 13.8%. In the case of `COc1ccc(/C=N/n2cncn2)cc1Cn1nc(C)c([N+](=O)[O-])c1C`, the “hERG current change (%, negative = inhibition) at 1uM” value is recorded as -8.84%. Under `COc1ccc(S(=O)(=O)N2CCCOC2CNC(=O)C(=O)NCCc2ccco2)cc1OC` (stereo not drawn) stands 0.943%; under `COc1ccc(-c2cn(Cc3ccc(C(=O)c4ccccc4)cc3)nn2)cc1`, 9.65%. Under `CC(=O)Nc1ccc(S(=O)(=O)NNC(=O)C(=O)NNc2ccccn2)cc1` stands 6.91%. `CCOC(=O)CN(C(=O)CSc1nnc(C)n1-c1ccccc1)c1ccccc1`: the “hERG current change (%, negative = inhibition) at 1uM” value came out at 10.8%. The same measure for `COc1ccc(-n2c(C)cc(C(=O)CSc3nnc(-c4ccoc4C)n3C)c2C)cc1`: 6.26%.

`O=C(CCCN1C(=O)c2ccccc2C1=O)Nc1c(C(=O)C2CC2)oc2ccccc12`: the “hERG current change (%, negative = inhibition) at 1uM” value is reported as 9.19%. The same measure for `CCN(CC)C(=O)CN(c1cccc(Br)c1)S(C)(=O)=O`: 7.56%. Under `COC(=O)c1cc(CSc2nc3ccccc3[nH]2)oc1C` stands 14.1%; under `Cc1occc1C(=O)NCCc1ccc(Cl)cc1`, 5.04%; under `CC(OC(=O)c1cccnc1Cl)C(=O)Nc1ccc2c(c1)OCCO2` (stereo not drawn), 0.0837%. Under `COC(=O)c1ccc(C2/C(=C(/O)c3ccc(OC)cc3)C(=O)C(=O)N2CC2CCCO2)cc1` (stereo not drawn) stands 7.22%.

In the case of `COc1cccc(COC(=O)c2c(C)nn(-c3ccccc3)c2Cl)c1OC`, the “hERG current change (%, negative = inhibition) at 1uM” value is given as 6.79%. The same measure for `O=C(c1ccco1)N1CCN(C(=O)C2Cc3ccccc3CN2S(=O)(=O)c2ccc(F)cc2)CC1` (stereo not drawn): -21.4%. The same measure for `CC1CCCN(CC(O)COc2ccc(Cl)cc2)C1.Cl` (stereo not drawn): -32.2%.

With `Cc1cc(C)c(C)c(S(=O)(=O)N2CCC(C(=O)NCCCN3CCCC3=O)CC2)c1C`, the “hERG current change (%, negative = inhibition) at 1uM” value is on record as -42.5%. The same measure for `CCCCOC(=O)Nc1ccc(S(=O)(=O)Nc2onc(C)c2C)cc1`: 14.1%; for `Cn1c(=O)[nH]c(=O)c2[nH]c(CN3CCN(Cc4ccccc4)CC3)nc21`: 8.43%; for `O=C(O/N=C(/c1ccccc1)c1ccncc1)c1cccc(F)c1`: 19.1%. Under `CCn1cc(C(=O)NCCCOC(C)C)c(=O)c2cc(S(=O)(=O)N3CCCC3)ccc21` stands 6.17%. The same measure for `COc1ccc(N2CCN(C(=O)C3CCCN(S(=O)(=O)c4c(C)noc4C)C3)CC2)cc1` (stereo not drawn): -6.44%; for `CCS(=O)(=O)N1CCN(Cc2ccncc2)CC1.O=C(O)C(=O)O`: 16.4%; for `CCOC(=O)C1(Cc2cccc(F)c2)CCN(Cc2c(C)nn(CC)c2C)CC1`: -14.3%. On to `Cc1cc(-c2cccs2)n[nH]1`, for which the “hERG current change (%, negative = inhibition) at 1uM” value worked out at 11.7%. Under `Cc1cc(C(=O)NN=C2CCCC2)c2ccccc2n1` stands 9.77%.

Consider `CCOc1ccc(/C=N/NC(=O)c2nnn(-c3nonc3N)c2COc2ccc(F)cc2)cc1`, for which the “hERG current change (%, negative = inhibition) at 1uM” value was 14.4%. Under `CC(=O)C1=C(O)C(=O)N(c2cccc(C(=O)O)c2)C1c1ccc(F)cc1` (stereo not drawn) stands 13.8%. Under `CN(C)/N=C/c1ccc(OS(=O)(=O)c2ccccc2)cc1` stands 14.1%; under `COC(=O)c1cccc(NC(=O)CSc2nnc(COc3ccc(C#N)cc3)n2-c2ccccc2)c1`, -17.5%; under `O=C(Cc1ccsc1)Nc1ccccc1F`, 12.1%.

For the compound `O=c1[nH]c(CN2CCN(S(=O)(=O)c3cccs3)CC2)nc2c(Br)cc(Br)cc12`, the “hERG current change (%, negative = inhibition) at 1uM” value was determined as 0.89%.

Take `Cc1ccnc(NS(=O)(=O)c2ccc(NC(=O)Cc3c(F)cccc3Cl)cc2)n1`: the “hERG current change (%, negative = inhibition) at 1uM” value was 9.04%. Under `Cc1nc2ccccc2n1CC(=O)NC(C)C1CC2CCC1C2` (stereo not drawn) stands 12.4%. Under `N#C/C(=C\c1ccc(-c2cccc(C(F)(F)F)c2)o1)C(=O)Nn1cnnc1` stands 6.23%; under `Cc1ccc(/C=C2\C(=N)N3N=C(CC(=O)N4CCCCC4)SC3=NC2=O)cc1`, 13.6%.

As to `CCN(CC(N)=O)S(=O)(=O)c1ccc(Br)cc1`, the “hERG current change (%, negative = inhibition) at 1uM” value was 8.54%. With `Cc1cccc(NC(=O)COC(=O)c2cccc3c2C(=O)c2ccccc2C3=O)c1C`, the “hERG current change (%, negative = inhibition) at 1uM” value was -0.0605%. With `CC(C)(C)NC(=O)NC(=O)COC(=O)C1CC(=O)N(Cc2ccccc2)C1` (stereo not drawn), the “hERG current change (%, negative = inhibition) at 1uM” value came out at 13.2%. Under `CC(=O)OCC1=C(C(=O)O)N2C(=O)C(NC(=O)C(C)Cn3nc(C)c(Cl)c3C)C2SC1` (stereo not drawn) stands 4.29%.

Take `C=CCn1c(SCC(=O)C(C)(C)C)nnc1-c1ccccn1`: the “hERG current change (%, negative = inhibition) at 1uM” value is reported as 6.06%. The same measure for `CN(C)c1cc[nH]c(=O)c1C#N`: 11.8%. `CCNc1ccc(S(=O)(=O)N(C)C)cc1NCC(=O)Nc1ccccc1F`: the “hERG current change (%, negative = inhibition) at 1uM” value was -10%. As for `C=CCOc1ccn(C)c(=O)n1`, the “hERG current change (%, negative = inhibition) at 1uM” value is 2.71%. The same measure for `O=C(NCc1ccco1)c1ccc([N+](=O)[O-])o1`: 15.5%; for `COc1ccc(-c2nc(C#N)c(NC(C)c3ccccc3)o2)cc1OC` (stereo not drawn): 4.38%; for `O=C(O)c1cccc([N+](=O)[O-])c1C(=O)Nc1cccc2ccccc12`: 17%. The same measure for `O=C(NCCSCc1ccco1)c1ccc(=O)[nH]c1`: 17.9%; for `O=C(CCN1C(=O)[C@@H]2Cc3ccccc3CN2C1=O)NCCc1ccccc1`: 4.01%.

For the origin of these results see paper PMC4336329 (PLoS ONE, 2015).
